In patent US20110262945A1, “GLYCOPROTEIN PRODUCTION METHOD AND SCREENING METHOD” (OTSUKA CHEMICAL CO., LTD., priority 2008, published 2011):

Experiments:
α-chymotrypsin = α-chymotrypsin (Bos taurus, UniProt P00766); assay: Inhibitory activity of OMSVP3 fractions against chymotrypsin at constant sample concentration (Example 2); assay type: biochemical; conditions: for activity intensity (inhibitory activity against chymotrypsin), rank order of fractions: Example 2, sample 2.5 μM, enzyme 0.33 μg/mL, substrate 172 μM, 37° C., 10 minutes, FIGS. 13 and 21
Experimental: (§1) An enzyme solution of a 0.1 M phosphate buffer (pH=8.0, containing 0.01% α-chymotrypsin and 0.01% bovine serum albumin) and a substrate solution of a 0.1 M phosphate buffer (pH=8.0, containing 517 μM of a 14-residue peptide having a protecting group synthesized in Reference Example 1 (to be described later) (SEQ ID NO:16) and 0.01% bovine serum albumin) were prepared, and 20 μL of each solution was transferred to an Eppendorf tube. Separately, each of the Fractions A to D obtained in Example 1 was lyophilized and dissolved in 0.1 M phosphate buffer (pH=8.0, containing 0.01% bovine serum albumin), and OD280 of each resulting solution was measured to prepare sample solutions of constant protein concentration. Then, 20 μL of each sample solution was added to the solution prepared as above and the inhibitory activity was measured. In this experiment, the final reaction concentration was as follows; a sample concentration of 2.5 μM, an enzyme concentration of 0.33 μg/mL, and a substrate concentration of 172 μM. The resulting reaction solutions were incubated at 37° C. for 10 minutes, after which the reaction was terminated by addition of 5 μL of 4N hydrochloric acid.
as §1, with “Fractions E” for “Fractions A”, “to H” for “to D”

Chymotrypsin = Chymotrypsin (Bos taurus, UniProt P00766); assay: Percent inhibition against chymotrypsin and calculation of IC50 of OMSVP3 fractions (Example 3); assay type: biochemical; conditions: incubation one hour at 37° C., FIGS. 23 to 26
Experimental: The 14-residue peptide having a protecting group synthesized in Reference Example 1 (to be described later) (SEQ ID NO:16) (1.5 mg) was dissolved in 1 mL of a 0.1 M phosphate buffer (pH 8.0, containing 0.1 mg/mL BSA) to prepare a 1 mM solution. The solution thus obtained was diluted to 0.34 mM using an absorption spectrometer (solution 1). Chymotrypsin (1 mg) was dissolved in 1 mL of a 0.1 M phosphate buffer (pH 8.0, containing 0.1 mg/mL BSA). The resulting solution was diluted 10-fold, and further diluted 10-fold. The above operation was repeated so that a solution of 0.2 μg/mL was prepared (solution 2). Fraction B was dissolved in 100 μL of a 0.1 M phosphate buffer (pH 8.0, containing 0.1 mg/mL BSA), and the solution thus obtained was diluted to 65 nM using an absorption spectrometer. The resulting solution was diluted to prepare solutions of 58.5 nM, 52 nM, 45.5 nM, 39 nM, 32.5 nM, 26 nM, 19.5 nM, 13 nM, and 6.5 nM (solution 3). Into the same Eppendorf tube, 80 μL of Solution 1 that was sufficiently cooled on ice and 40 μL each of Solutions 2 and 3 were transferred, followed by incubation for one hour at 37° C. After one hour, the reaction was terminated by addition of 16 μL of 1N hydrochloric acid. Then, 20 μL of the resulting reaction solution was mixed with 80 μL of buffer to make up a total of 100 μL which was then measured by HPLC. A degradation rate per unit time (a reaction rate per unit time) was calculated from the peak area of HPLC of the reaction product. […] Similarly, with regard also to Fractions A, C, and D, graphs were plotted in such a way that the concentrations of the inhibiting agent sandwiched the concentration at which the enzyme activity was inhibited by 50%. The resulting graphs are shown (FIG. 23). The IC50 values of glycosylated OMSVP3 (Fractions A to D) calculated based on these graphs are shown in a graph (FIG. 24).
The 14-residue peptide having a protecting group synthesized in Reference Example 1 (to be described later) (SEQ ID NO:16) (1.5 mg) was dissolved in 1 mL of a 0.1 M phosphate buffer (pH 8.0, containing 0.1 mg/mL BSA) to prepare a 1 mM solution. The solution thus obtained was diluted to 0.34 mM using an absorption spectrometer (solution 1). Chymotrypsin (1 mg) was dissolved in 1 mL of a 0.1 M phosphate buffer (pH 8.0, containing 0.1 mg/mL BSA). The resulting solution was diluted 10-fold, and further diluted 10-fold. The above operation was repeated so that a solution of 0.2 μg/mL was prepared (solution 2). […] The resulting solution was diluted to prepare solutions of 58.5 nM, 52 nM, 45.5 nM, 39 nM, 32.5 nM, 26 nM, 19.5 nM, 13 nM, and 6.5 nM (solution 3). Into the same Eppendorf tube, 80 μL of Solution 1 that was sufficiently cooled on ice and 40 μL each of Solutions 2 and 3 were transferred, followed by incubation for one hour at 37° C. After one hour, the reaction was terminated by addition of 16 μL of 1N hydrochloric acid. Then, 20 μL of the resulting reaction solution was mixed with 80 μL of buffer to make up a total of 100 μL, which was then measured by HPLC. A degradation rate per unit time (a reaction rate per unit time) was calculated from the peak area of HPLC of the reaction product. […] Similarly, with regard also to Fractions E, G, and H, graphs were plotted in such a way that the concentrations of the inhibiting agent sandwiched the concentration at which the enzyme activity was inhibited by 50%. The resulting graphs are shown (FIG. 25). The IC50 values of non-glycosylated OMSVP3 (Fractions E to F) calculated based on these graphs are shown in a graph (FIG. 26).

activity (in words) of the maximum peak fraction (α-chymotrypsin; chymotrypsin inhibition, fractions obtained as the maximum peak) | Substance | activity intensity (inhibitory activity against chymotrypsin), rank order of fractions (α-chymotrypsin) | activity intensity (percent inhibition / IC50 against chymotrypsin), rank order of fractions (Chymotrypsin)
 | Fraction H: Folded 56-residue peptide (SEQ ID NO:15), non-glycosylated OMSVP3, Comparative Example, separated by HPLC (LAAVSVDCSEYPKPACTMEYRPLCGSDNKTYGNKCNFCNAVVESNGTLTLSHFGKC; silver pheasant; amino acid sequence (non-glycosylated OMSVP3)) | Fraction F>Fraction E>Fraction H>Fraction G | Fraction E>Fraction F>Fraction G>Fraction H
 | Fraction C: Folded 56-residue glycosylated peptide (SEQ ID NO:10), glycosylated OMSVP3, one higher order structure separated by HPLC (LAAVSVDCSEYPKPACTMEYRPLCGSDNKTYGNKCNFCNAVVESNGTLTLSHFGKC; glycosylated; silver pheasant; glycosylated amino acid sequence (glycosylated OMSVP3)) | Fraction A>Fraction B>Fraction D>Fraction C | Fraction A>Fraction B>Fraction C>Fraction D
 | Fraction G: Folded 56-residue peptide (SEQ ID NO:15), non-glycosylated OMSVP3, Comparative Example, separated by HPLC (LAAVSVDCSEYPKPACTMEYRPLCGSDNKTYGNKCNFCNAVVESNGTLTLSHFGKC; silver pheasant; amino acid sequence (non-glycosylated OMSVP3)) | Fraction F>Fraction E>Fraction H>Fraction G | Fraction E>Fraction F>Fraction G>Fraction H
 | Fraction D: Folded 56-residue glycosylated peptide (SEQ ID NO:10), glycosylated OMSVP3, one higher order structure separated by HPLC (LAAVSVDCSEYPKPACTMEYRPLCGSDNKTYGNKCNFCNAVVESNGTLTLSHFGKC; glycosylated; silver pheasant; glycosylated amino acid sequence (glycosylated OMSVP3)) | Fraction A>Fraction B>Fraction D>Fraction C | Fraction A>Fraction B>Fraction C>Fraction D
 | Fraction A: Folded 56-residue glycosylated peptide (SEQ ID NO:10), glycosylated OMSVP3, one higher order structure separated by HPLC (LAAVSVDCSEYPKPACTMEYRPLCGSDNKTYGNKCNFCNAVVESNGTLTLSHFGKC; glycosylated; silver pheasant; glycosylated amino acid sequence (glycosylated OMSVP3)) | Fraction A>Fraction B>Fraction D>Fraction C | Fraction A>Fraction B>Fraction C>Fraction D
 | Fraction E: Folded 56-residue peptide (SEQ ID NO:15), non-glycosylated OMSVP3, Comparative Example, separated by HPLC (LAAVSVDCSEYPKPACTMEYRPLCGSDNKTYGNKCNFCNAVVESNGTLTLSHFGKC; silver pheasant; amino acid sequence (non-glycosylated OMSVP3)) | Fraction F>Fraction E>Fraction H>Fraction G | Fraction E>Fraction F>Fraction G>Fraction H
high activity | Fraction B: Folded 56-residue glycosylated peptide (SEQ ID NO:10), glycosylated OMSVP3, disulfide bonds as naturally-occurring OMSVP3 (LAAVSVDCSEYPKPACTMEYRPLCGSDNKTYGNKCNFCNAVVESNGTLTLSHFGKC; glycosylated; silver pheasant; glycosylated amino acid sequence (glycosylated OMSVP3)) | Fraction A>Fraction B>Fraction D>Fraction C | Fraction A>Fraction B>Fraction C>Fraction D
